Measured values published in PubChem BioAssay AID894 (National Center for Advancing Translational Sciences (NCATS), 2007).
The campaign covered roughly 150,000 compounds. About 6,500 (4.3%) were called active. The shares of active, inactive and inconclusive entries below differ from those in the screen. The call rests on the fitted dose curve; in most records, active means well fitted inhibition curve with a large enough effect (not every such curve was filed as active); inconclusive means small, poorly fitted or top-dose-only effect, or another doubt; inactive means no such curve, though single readings can be large or run the other way. No potency is given beside an inconclusive call; the fits are too rough.

What follows are compounds tested against 15-hydroxyprostaglandin dehydrogenase [NAD(+)] (Homo sapiens) (UniProt P15428) (assay: qHTS Assay for Inhibitors of HPGD (15-Hydroxyprostaglandin Dehydrogenase)). Conditions: purified HPGD, NADH fluorescence kinetic, PGE2 substrate; activity change, negative = inhibition: stronger effect = lower value.
Chain of UniProt P15428 (P15428 whole entry, looked up): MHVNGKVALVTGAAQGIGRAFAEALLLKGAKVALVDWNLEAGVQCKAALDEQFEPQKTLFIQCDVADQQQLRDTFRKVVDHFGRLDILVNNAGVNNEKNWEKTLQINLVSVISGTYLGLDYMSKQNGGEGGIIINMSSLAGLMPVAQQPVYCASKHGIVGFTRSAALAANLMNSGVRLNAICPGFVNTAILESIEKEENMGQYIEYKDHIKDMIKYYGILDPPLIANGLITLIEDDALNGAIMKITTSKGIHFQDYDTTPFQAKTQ
Method in brief: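 20 nM HPGD preincubated 15 min at room temperature with compound in 50 mM Tris-HCl pH 8, 0.01% Tween 20. Started with 1 mM NAD+ and 30 uM prostaglandin E2; NADH fluorescence (360/450 nm) read 5 times over 30-s intervals, last minus first.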
On the % scale 0 is the no-effect control and ±100 the full control effect; potency means the concentration at half of the fitted maximal effect; tags describe the fitted curve by direction and shape.

Row | Compound | Potency | activity change, negative = inhibition
1 | CCCN1CCC(NC(=O)Nc2ccccc2C(=O)OC)CC1 | inconclusive [inhibitor, single point] | –
2 | CSc1ccccc1C(=O)NCC1CCCO1 (stereo unspecified) | active: 15.8 µM | –
3 | Cc1cc(=O)c2c(O)c3c(O)cc(O)c4c5c(O)cc(O)c6c(O)c7c(=O)cc(C)c8c1c2c(c34)c(c65)c78 | active: 8.91 µM | –
4 | C=CCN(CC=C)S(=O)(=O)c1ccc(NC(=S)NC(=O)c2ccc(-c3ccccc3)cc2)cc1 | inconclusive [inhibitor, partial curve] | –
5 | CCc1cc2c(=O)c(-c3cscn3)coc2c(CN(C)C)c1O | inconclusive [inhibitor, partial curve] | –
6 | CC(C)(C)c1ccc(-c2nnc(SCCN3C(=O)c4ccccc4C3=O)o2)cc1 | active: 17.8 µM | –
7 | COc1cc(-n2c(C)nc3cc(C(=O)N4CCOCC4)ccc32)cc(OC)c1OC | active: 31.6 µM | –
8 | O=C(NC1CC1)c1ccc2c3c(cccc13)CC2 | inconclusive [inhibitor, partial curve] | –
9 | CCCCCCn1c(CN2CCN(C)CC2)nc2c1c(=O)n(C)c(=O)n2C | – | inactive: -14.4%
10 | O=C(Nc1ccc(Br)c(Cl)c1)c1ccco1 | active: 22.4 µM | –
11 | Cc1cc(=O)oc2c(CN(CC(C)C)CC(C)C)c(O)ccc12 | inconclusive [inhibitor, full curve] | –
12 | Cc1[nH]c2ccc(-c3nnc(SCC(=O)NCc4ccco4)n3Cc3ccccc3)cc2c1C | active: 15.8 µM | –
13 | O=C(CCn1nc(-c2ccccc2)c2ccccc2c1=O)NCC1CCCO1 (stereo unspecified) | active: 28.2 µM | –
14 | c1ccc(-c2nc3ccccc3[nH]2)nc1 | inconclusive [inhibitor, partial curve] | –
15 | COC(=O)N[C@@H](/C=C/c1ccccc1)/C(C(=O)OC)=C(\C)NCc1ccccc1 | – | inactive: -12.3%
16 | C=CCn1c(SCC(=O)NCc2ccco2)nnc1-c1ccc2ccccc2n1 | active: 15.8 µM | –
17 | Brc1ccc(-c2nnc3sc(CN4CCC5(CC4)OCCO5)cn23)cc1 | inconclusive [inhibitor, partial curve] | –
18 | Cc1cc(C)n(CCc2nc(-c3ccco3)cs2)n1 | inconclusive [inhibitor, single point] | –
19 | O=C(COC(=O)c1cc2ccccc2cc1O)Nc1cccnc1Cl | – | inactive: -1.63%
20 | COc1ccc(OCCOC(=O)c2cccs2)cc1 | – | inactive: -29.7%
21 | O=C(CCCOc1ccc(Cl)cc1Cl)N1CCN(c2ccccn2)CC1 | inconclusive [inhibitor, partial curve] | –
